# Reference: the supplement of paper PMC11417369
# ± gives the standard deviation of the averaged measurements. The list shows a part of the results.
# Tested on: PfAP2-G AP2 domain (GST-tagged)
# Test: gcPBM binding intensity (ln(normalized median fluorescence intensity)); higher = stronger DNA binding
# Method in brief: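 Each value is the highest Masliner-normalised natural-log median intensity across replicate spots of either orientation of a probe. The probes were primer-extended double-stranded 36-bp intergenic genomic sequences on an Agilent 4 × 180k array, alongside negative controls, exposed for 1 h to GST-tagged P. falciparum DNA-binding domains expressed in E. coli. Bound protein was picked up with Alexa488 anti-GST antibody and scanned at 488 nm.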
row,Sequence,gcPBM binding intensity (ln)
1,AAAAAAAAAAAAAAAAGTACATGAAAAAAAGAAGAA [XGTACX_site8384],11.6 ± 0.95
2,TTTTTTTTTTAGTATGAACACACATATATATTATAA [CACACA_site8957],10.1 ± 0.29
3,ATAAAACTTATTTAACGTACATATTTTATATACCTT [XGTACX_site5353],11.2 ± 0.64
4,TATAAAATAAATAACAAAAAAAATAAAATAAAAATA [TGCATGCA_negctrl_site297],9.705 ± 0.064
5,AAAAAATACATCAAAAGAAACATATATATATATATA [GTGCAC_negctrl_site719],9.93 ± 0.45
6,TATAGCAAAATATTCACACAAACTATTAATAAAAGT [CACACA_site5795],10.06 ± 0.014
7,AATGGTTATAATATATGTACATATAAATATACTGAA [XGTACX_site8533],11.3 ± 0.66
8,GTTTATATATTATAAAGTACATATGAATTTAATAAT [XGTACX_site3601],11.2 ± 0.83
9,ATAATATAATAATATTGTACATGGTCAAATATGAAA [XGTACX_site8390],11 ± 0.46
10,GATCATTCTAAATATAAACACACATAAATATATACA [CACACA_site9108],9.875 ± 0.035
11,TATATTCCCATATAACGTACATATGAGACACCAACT [XGTACX_site8099],11.3 ± 0.64
12,CTTAAAAAAATATATTGTACATATATATATACAACT [XGTACX_site1281],11.1 ± 0.54
13,TATAATTATGATGATAGTACGTATGAGTTCAAAACA [XGTACX_site4211],11.1 ± 0.62
14,CACATTTTTTAAATATTTTTCTACTCCATAATGTTT [CACACA_negctrl_site557],10.3 ± 0.18
15,TTAATATAGGGAAAAAAAAGAAAATCGAAAATGTGT [CACACA_negctrl_site834],10.02 ± 0.099
16,ATAGTTACACGCCAAAAAAAAAAAAAAAAAAAAAAA [CACACA_negctrl_site1133],9.95 ± 0.45
17,ATAAATAGTATTATATGTACACATAATATTTATAAA [XGTACX_site4751],11.5 ± 0.64
18,TTTCTCTCTTATAAAATACACACGAACAATCATATT [CACACA_site509],10.1 ± 0.16
19,AAAAATGGTGTTAACACACACATATATATATATATA [CACACA_site571],10.2 ± 0.46

row,Sequence,gcPBM binding intensity (ln)
1,TTAAAATGATTGTTACTTTTTTTTCCGTTTTCTTAA [CACACA_negctrl_site1195],9.97 ± 0.028
2,TAACTTCAAAAATCTTGTACATAAATATATAAAACA [XGTACX_site8574],10.9 ± 0.67
3,AATTTTGTCCTATGTTGTACTATTTTGCTCTATTTT [XGTACX_site7139],11.2 ± 0.59
4,ATTACTAAAACAAAATGTACATATGATTTAAGAAAA [XGTACX_site5992],11.1 ± 0.54
5,TCTTGATCTTATATATATCTACAATATTTTATACAT [TGCATGCA_negctrl_site569],9.975 ± 0.021
6,ATTACAAATATAATATGTACTTAAATATAATTAAAA [XGTACX_site7038],11.2 ± 0.75
7,TTTTTTTTTTAGAGTACACACTTTTTTACATTTATG [CACACA_site5990],11.6 ± 0.91
8,GAAAAATTTAATTATTGTACGTTTCATCTATATTTA [XGTACX_site414],11.2 ± 0.86
9,TTTTTGTTTTTTTTGTGTACTTATCAAATATATATA [XGTACX_site7273],11.6 ± 0.83
10,ATATATATATATATTGCACACATATAAATATATATA [CACACA_site8167],9.99 ± 0.51
11,TAAAACTTAATATAAACACACAAAAATTAATAAATA [CACACA_site4370],10 ± 0.13
12,CAATATTATAGATATACACACATAATGTGTAAAAAC [CACACA_site6631],10.2
13,CAAAAAAAATTATACACACACACACCCATATATATA [CACACA_site1044],10.2 ± 0.18
14,TACTATATATTATATAGTACATAAGATATACAACAT [XGTACX_site2929],11 ± 0.61
15,AAGAAAATTAACCCATGTACTTATGTAGATAGCAAG [XGTACX_site1049],11.1 ± 0.6
16,AATTTTTTTATAGCACGTACAAAAATACAAAATACA [XGTACX_site1569],11.4 ± 0.73
17,AATTTTCAATAGTATACACACAATTCTATAAATATA [CACACA_site6650],9.84 ± 0.042
18,AATGAGAATTTTATTACACACTTTAATATATTTTCA [CACACA_site784],9.775 ± 0.078
19,CACGTGAAAATACAAGCATGCAAGCTTTTTTTTTCT [TGCATGCA_site642],9.64 ± 0.31

row,Sequence,gcPBM binding intensity (ln)
1,AATTATATAAGCCACGCATGTGTGCATAAAAATACA [TGCATGCA_site114],10.2 ± 0.14
2,AAAAAAATAAATAAATGTACACATATATATATATAT [XGTACX_site4350],11.3 ± 0.71
3,ATCATTTATATTTTATGTACATATATAATTATATTT [XGTACX_site2129],11.3 ± 0.74
4,TAGAGGAATATAATATGTACATAATATAATGTATAT [XGTACX_site2838],11.2 ± 0.68
5,AGTGAAATTTTAGTCACACAGTTTTATCTTTAAGAA [CACACA_site5202],9.94 ± 0.15
6,TTATGTCTAATGAAATGTACATGAATAAATTAAAGT [XGTACX_site8138],11.2 ± 0.52
7,AGCCCAAAAAAGTAGACATGCAAAAACTTTACAACT [TGCATGCA_site550],10.01 ± 0.057
8,TATATATAAACATAATGTACATATAATAAGTAATAT [XGTACX_site497],11.1 ± 0.5
9,AAAAAAAAAAAGAAGGGTACATATTATATATAATAT [XGTACX_site6204],11.2 ± 0.76
10,AAAATGTAATATTGGGTGCACAATAAGTTTGATGTC,10.4 ± 0.22
11,TAGTATTAAATATATACACACATATATACCTATAGA [CACACA_site5219],9.885 ± 0.049
12,TACTATATATATATATATATATATATATATATTTAT [GTGCAC_negctrl_site593],9.455 ± 0.007
13,AAAAATTCAATAGGACGTACTAAAACATTCATTAAT [XGTACX_site1712],11.2 ± 0.84
14,TTATAAATAATGAGAAACATTAAATTTAATCATAAA [CACACA_negctrl_site523],9.715 ± 0.049
15,TTTAGTGTTATAAAAAGTACATAATAATTCCTTTTC [XGTACX_site3208],11.3 ± 0.91
16,TCATAGTATAAACACACACACACACCCATATATATA [CACACA_site8512],10.2 ± 0.3
17,AATATGTACAGACATACACACATATTTATATTTATA [CACACA_site6694],11.2 ± 0.84
18,TTATATAAAGAATGTACACACAGAAATGCACAGACA [CACACA_site5288],11.3 ± 0.69
